{"source": "ChEMBL document CHEMBL4888484", "about": "“Replenishing the malaria drug discovery pipeline: Screening and hit evaluation of the MMV Hit Generation Library 1 (HGL1) against asexual blood stage Plasmodium falciparum ,using a nano luciferase reporter read-out” (2022)", "note": "Among all 150,000 compounds or so, about 540 (0.36%) showed an effect of 50% or more. This is one part of the list."}
{"tested_on": "Plasmodium falciparum", "test": "Primary screen in NF54 nanoGlo assay, in single point, at 2uM, 72h; a lower Z score goes with more inhibition", "type": "functional, Erythrocyte", "details": "timepoint 72 hour", "units": {"% Inhibition": "%"}}
{"smiles": "CCOc1ccc(N2C(=O)NC(=O)C(CCc3ccncc3)(CCc3ccncc3)C2=O)cc1", "% Inhibition": 0, "Z score": -0.03}
{"smiles": "COCCC(=O)Nc1ccc2n(c1=O)C[C@H]1C[C@@H]2CN(Cc2ccc(F)cc2)C1", "% Inhibition": -3, "Z score": 0.51}
{"smiles": "Cc1ncc2c(n1)C[C@@H]1CC[C@H]2N1C(=O)COc1ccccc1", "% Inhibition": -8, "Z score": 1.18}
{"smiles": "C=C1C2CC3(C[C@H]4C5C6(C3CC2=O)C4[N+]([O-])(CC)C[C@]5(C)CC[C@@H]6O)[C@@H]1O", "note": "(stereo partly specified)", "% Inhibition": -6, "Z score": 1.11}
{"smiles": "CCCCc1nc(CN2CCC[C@H](C(=O)c3cccc(Cl)c3)C2)c[nH]1", "% Inhibition": 5, "Z score": -0.69}
{"smiles": "O=C(NCc1cncc(O)c1)C1NCCC2CCCCC21", "note": "(stereo unspecified)", "% Inhibition": 6, "Z score": -0.88}
{"smiles": "COC[C@H](C)NCCc1ccc(C)cc1", "% Inhibition": -4, "Z score": 0.73}
{"smiles": "CC1CCCCC1N1CCN(C(=O)COc2ccc(Br)cc2)CC1", "note": "(stereo unspecified)", "% Inhibition": 29, "Z score": -0.9}
{"smiles": "Clc1cccnc1N1CCC[C@H]1c1cccnc1", "% Inhibition": -4, "Z score": 0.63}
{"smiles": "COc1cc(C(=O)Nc2ccc3[nH]c(=O)oc3c2)cc(OC)c1OC", "% Inhibition": -10, "Z score": 1.52}
{"smiles": "O=C1CN=C(c2ccccc2)c2ccccc2N1Cc1ccc(C(F)(F)F)cc1", "% Inhibition": -2, "Z score": 0.26}
{"smiles": "Cc1onc(-c2cccnc2)c1C(=O)N1CCC2(CC1)OCCO2", "% Inhibition": 11, "Z score": -1.99}
{"smiles": "Cc1ccc(C(=O)Nc2nccnc2C(=O)N2CCC3(CC2)OCCO3)cc1", "% Inhibition": -9, "Z score": 1.32}
{"smiles": "CCCc1nc(C)cc(N2CCCN3CCC[C@H]3C2)n1", "% Inhibition": 5, "Z score": -0.98}
{"smiles": "Cc1ccn2c(CN3CCCC4(C3)OCCO4)cnc2c1", "% Inhibition": -6, "Z score": 0.47}
{"smiles": "O[C@H]1C[C@@H]2CN(Cc3nccs3)C[C@@H]2C[C@@H]1O", "% Inhibition": -16, "Z score": 1.46}
{"smiles": "O=C(c1cnn2c1CCCC2)N1C[C@H](c2ccccc2)[C@@H]2[C@H]1C1CCN2CC1", "% Inhibition": -1, "Z score": 0.19}
{"smiles": "Cc1n[nH]c(CN2C[C@H]3CCC[C@@H](C3)C2)c1Cl", "% Inhibition": -3, "Z score": 0.44}
{"smiles": "Cc1ccc(Cn2c(=O)oc3ccc(C(=O)NC4CCCCCC4)cc32)cc1", "% Inhibition": 1, "Z score": -0.13}
{"smiles": "C[C@H](NCCc1c[nH]c2ccccc12)c1nccs1", "% Inhibition": 7, "Z score": -0.76}
{"smiles": "CN(C)c1cc(NC(=O)N2CC3CCC2CN3)ncc1Br", "note": "(stereo unspecified)", "% Inhibition": -5, "Z score": 0.66}
{"smiles": "Cc1ccc([C@H]2CN(C(=O)c3cncc(C)c3)[C@@H]3C4CCN(CC4)[C@H]23)cc1", "% Inhibition": 11, "Z score": -1.39}
{"smiles": "CC(O)C(=O)NC(c1ccc(Cl)cc1)C1CC2CCC(C1)N2C", "note": "(stereo unspecified)", "% Inhibition": 1, "Z score": -0.16}
